From US20190321456A1 (NATIONAL HEALTH RESEARCH INSTITUTES, published 2019)

Biological target: T1, recombinant ovalbumin (OVA) (Gallus gallus (Chicken), UniProt P01012 1-386)
T1 sequence: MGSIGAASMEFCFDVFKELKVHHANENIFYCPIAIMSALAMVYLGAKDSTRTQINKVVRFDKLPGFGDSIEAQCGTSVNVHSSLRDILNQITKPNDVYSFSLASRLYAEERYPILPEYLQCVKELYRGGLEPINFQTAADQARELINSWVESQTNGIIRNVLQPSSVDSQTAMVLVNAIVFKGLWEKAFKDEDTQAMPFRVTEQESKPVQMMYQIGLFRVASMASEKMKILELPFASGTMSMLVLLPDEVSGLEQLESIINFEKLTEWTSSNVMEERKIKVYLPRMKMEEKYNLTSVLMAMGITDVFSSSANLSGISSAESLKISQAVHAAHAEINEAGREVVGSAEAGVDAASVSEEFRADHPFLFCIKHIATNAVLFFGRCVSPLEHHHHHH
Experiment: ELISA, plate coated with recombinant protein at 1 µg/mL, serial dilution of biotin-conjugated FcγR, streptavidin-HRP

B1: biotin-conjugated recombinant FcγRIIIa-V158 (receptor)
chain: not shown
notes: The V158 allotype name implies the human receptor
- binding result: no binding
